Assay results taken from patent US20260256934A1, “ANTIBODY-DRUG CONJUGATE INCLUDING MUTANT Fc REGION” (DAIICHI SANKYO COMPANY, LIMITED, priority 2022, published 2026).

B1: anti-EGFR antibody 1-CDN conjugate 1 (conjugate)
heavy: QVQLQESGPGLVKPSETLSLTCTVSGGSVSSGDYYWTWIRQSPGKGLEWIGHIYYSGNTNYNPSLKSRLTISIDTSKTQFSLKLSSVTAADTAIYYCVRDRVTGAFDIWGQGTMVTVSSASTKGPSVFPLAPSSKSTSGGTAALGCLVKDYFPEPVTVSWNSGALTSGVHTFPAVLQSSGLYSLSSVVTVPSSSLGTQTYICNVNHKPSNTKVDKRVEPKSCDKTHTCPPCPAPEAAGGPSVFLFPPKPKDTLMISRTPEVTCVVVGVSHEDPEVKFNWYVDGVEVHNAKTKPREEQYNSTYRVVSVLTVLHQDWLNGKEYKCKVSNKALPAPIEKTISKAKGQPREPQVYTLPPSREEMTKNQVSLTCLVKGFYPSDIAVEWESNGQPENNYKTTPPVLDSDGSFFLYSKLTVDKSRWQQGNVFSCSVMHEALHNHYTQKSLSLSPGK
light: DIQMTQSPSSLSASVGDRVTITCQASQDISNYLNWYQQKPGKAPKLLIYDASNLETGVPSRFSGSGSGTDFTFTISSLQPEDIATYFCQHFDHLPLAFGGGTKVEIKRTVAAPSVFIFPPSDEQLKSGTASVVCLLNNFYPREAKVQWKVDNALQSGNSQESVTEQDSKDSTYSLSSTLTLSKADYEKHKVYACEVTHQGLSSPVTKSFNRGEC
B2: anti-EGFR antibody 1-CDN conjugate 2 (conjugate)
heavy: B1 heavy
light: B1 light

Tested on: CT26.WT cells
Assay: Tumor rechallenge test with CT26.WT cells in BALB/c mouse with complete tumor regression
Format: in vivo
Method: Substantially the same anti-tumor test as in (Test Example 3) Anti-Tumor Test (1) was conducted.
Substantially the same anti-tumor test as in (Test Example 5) Anti-Tumor Test (3) was conducted.

Molecule | tumor growth after rechallenge (tumor volume) (1.0 mg/kg once on Day 7, CT26.WT rechallenge left axillary region Day 80, results of Day 99, versus age-matched untreated control) | tumor growth after rechallenge (tumor volume) (1.0 mg/kg or 2.0 mg/kg once on Day 7, CT26.WT rechallenge Day 80, results of Day 100, versus age-matched control)
B1 | markedly inhibited | 
B2 |  | markedly inhibited
